# Source: patent publication US12043670B2, “Anti-BCMA antibody-drug conjugates and methods of use” (Eisai R&D Management Co., Ltd., priority 2020, dated 2024)
# B1: AB200-R1a-Fab_VH44 (antibody)
# heavy: QVQLVQSGAEVKKPGSSVKVSCKASGGTFSNYWMHWVRQAPGQGLEWMGGTYRGHSDTYYNQRFKGRVTITADKSTSTAYMELSSLRSEDTAVYYCARGAIYHGYDILDNWGQGTLVTVSSASTKGPSVFPLAPSSKSTSGGTAALGCLVKDYFPEPVTVSWNSGALTSGVHTFPAVLQSSGLYSLSSVVTVPSSSLGTQTYICNVNHKPSNTKVDKKVEPKSC
# light: DIQMTQSPSSLSASVGDRVTITCSATQDISNYLNWYQQKPGKAPKLLIYFTSNLQSGVPSRFSGSGSGTDFTLTISSLQPEDFATYYCQQYRKLPWTFGQGTKLEIKRTVAAPSVFIFPPSDEQLKSGTASVVCLLNNFYPREAKVQWKVDNALQSGNSQESVTEQDSKDSTYSLSSTLTLSKADYEKHKVYACEVTHQGLSSPVTKSFNRGEC
# B2: AB200-R1a-Fab_VH31 (antibody)
# heavy: B1 heavy with Y60F, R63K, Y105F, I107V
# light: B1 light
# B3: AB200-R1a-Fab_VH33 (antibody)
# heavy: B1 heavy with S30T, Y32F, G50A, H55Q, R63K, I107V
# light: B1 light
# B4: AB200-R1a-Fab_VH30 (antibody)
# heavy: B1 heavy with F29Y, G50A, S56T, R63K, I107V, L108M
# light: B1 light
# B5: AB200-R1a-Fab_VH46 (antibody)
# heavy: B1 heavy with G50A, Y59N, R63K, F64Y, H103N, I107V
# light: B1 light
# B6: AB200-R1a-Fab_VH34 (antibody)
# heavy: B1 heavy with W33Y, M34L, G50A, R63K, H103N, I107V
# light: B1 light
# B7: AB200-R1a-Fab_VH36 (antibody)
# heavy: B1 heavy with G50A, Y52F, Q62H, R63K, Y105F, I107V
# light: B1 light
# B8: AB200-R1a-Fab_VH2 (antibody)
# heavy: B1 heavy with G50A, R63K, K65Q, I101V, Y102F, I107V
# light: B1 light
# B9: AB200-R1a-Fab_VH24 (antibody)
# heavy: B1 heavy with S30T, G50A, D57N, R63K, I107V, L108I
# light: B1 light
# B10: AB200-R1a-Fab_VH1 (antibody)
# heavy: B1 heavy with G50A, D57E, Q62E, R63K, I107V, N110D
# light: B1 light
# B11: AB200-R1a-Fab_VH26: round 1 heavy chain variant of AB200_D99H_Fab paired with the AB200_Vk6_Fab (antibody)
# heavy: B1 heavy with T28S, G50A, G54I, Y59F, R63K, I107V
# light: B1 light
# B12: AB200-R1a-Fab_VH23 (antibody)
# heavy: B1 heavy with W33Y, G50A, Y59F, N61A, R63K, I107V
# light: B1 light
# B13: AB200-R1a-Fab_VH41 (antibody)
# heavy: B1 heavy with G50A, Q62E, R63K, D109N
# light: B1 light
# B14: AB200-R1a-Fab_VH37 (antibody)
# heavy: B1 heavy with S30T, G50A, R53K, R63K, K65R, I107V
# light: B1 light
# B15: AB200-R1a-Fab_VH19 (antibody)
# heavy: B1 heavy with T28S, H35Q, G50A, R63K, A100S, I107V
# light: B1 light
# B16: AB200-R1a-Fab_VH21 (antibody)
# heavy: B1 heavy with W33A, G50A, H55Q, R63K, F64Y, I107V
# light: B1 light
# B17: AB200-R1a-Fab_VH42 (antibody)
# heavy: B1 heavy with G50A, D57T, R63K, A100S, I107V, L108M
# light: B1 light
# B18: AB200-R1a-Fab_VH27 (antibody)
# heavy: B1 heavy with S25T, G50A, T51I, R63K, K65R, I107V
# light: B1 light
# B19: AB200-R1a-Fab_VH38 (antibody)
# heavy: B1 heavy with G50A, Y60F, R63K, Y102F, H103N, I107V
# light: B1 light
# B20: AB200-R1a-Fab_VH45 (antibody)
# heavy: B1 heavy with G50A, Q62N, R63K, I107V, D109E, N110D
# light: B1 light
# B21: AB200-R1a-Fab_VH32: round 1 heavy chain variant of AB200_D99H_Fab paired with the AB200_Vk6_Fab (antibody)
# heavy: B1 heavy with G50A, G54S, R63K, G66S, I107V, L108I
# light: B1 light
# B22: AB200-R1a-Fab_VH40 (antibody)
# heavy: B1 heavy with Y32F, G50A, Q62H, R63K, I107V, D109E
# light: B1 light
# B23: AB200-R1a-Fab_VH35 (antibody)
# heavy: B1 heavy with M34I, G50A, Y52F, R53K, R63K, I107V
# light: B1 light
# B24: AB200-R1a-Fab_VH20 (antibody)
# heavy: B1 heavy with G50A, Y52I, D57Q, R63K, K65Q, I107V
# light: B1 light
# B25: AB200-R1a-Fab_VH18 (antibody)
# heavy: B1 heavy with G50A, R53K, R63K, K74E, D106E, I107V
# light: B1 light
# B26: AB200-R1a-Fab_Vk16 (antibody)
# heavy: B1 heavy with G50A, R63K, I107V
# light: B1 light with T26S, S30T, F50A, Q55H, Q90E
# B27: AB200-R1a-Fab_Vk17 (antibody)
# heavy: B1 heavy with G50A, R63K, I107V
# light: B1 light with F50Y, S52T, Q55H, R92Y
# Assay: ThermoFluor thermostability (Tm)
# Type: physicochemical
# Conditions: Heavy chain screening Round 1; Fab, paired with light chain AB200_VK6
row,Molecule,Tm
1,B1,79.892 °C
2,B2,79.560 °C
3,B3,82.085 °C
4,B4,79.922 °C
5,B5,79.871 °C
6,B6,82.908 °C
7,B7,82.674 °C
8,B8,80.784 °C
9,B9,81.423 °C
10,B10,82.955 °C
11,B11,79.749 °C
12,B12,79.077 °C
13,B13,79.430 °C
14,B14,81.688 °C
15,B15,77.727 °C
16,B16,82.366 °C
17,B17,82.125 °C
18,B18,83.141 °C
19,B19,80.903 °C
20,B20,81.742 °C
21,B21,78.112 °C
22,B22,82.339 °C
23,B23,84.851 °C
24,B24,81.584 °C
25,B25,82.877 °C

# Same assay, conditions: Light chain screening Round 1; Fab, paired with heavy chain AB200_D99H
row,Molecule,Tm
1,B26,80.67 °C
2,B27,83.11 °C

# Substitutions are numbered along the chain they refer to.
